Assay results reported in patent publication US11021541B2, “Method of inhibiting the gonadotropin-releasing hormone (GnRH) receptor by administering a GHR-106 monoclonal antibody” (Vancouver Biotech Ltd., priority 2018, dated 2021).

Key:
[1] = tested on: OC-3-VGH, PC-3, A549 and MDA-MB-435 cancer cells; assay: TUNEL apoptosis assay of cultured and treated cancer cells; format: cell-based; conditions: co-incubation 24 to 72 hours, compared on a molar basis, FIGS. 2A and 2B
Procedure: In order to compare the anti-proliferative effects (or apoptosis) between mGHR106 or hGHR106 and antide on cancer cells, In Situ Cell Death Detection Kit, POD (Roche, Canada) was employed for detection and quantitation of apoptosis of cultured and treated cancer cells in vitro. Briefly cancer cells were cultured in RPMI-1640 medium at 37° C. in a CO2 (5%) incubator for 24 and/or 48 hours until all cancer cells are attached to microwells. Following removal of cell culture medium, fresh serum-free medium was added for an additional 3 hours incubation in a CO2 incubator.
After the serum-free starvation period, the cells were incubated in fresh medium containing 10% fetal calf serum, and hGHR106, mGHR106 or antide of known concentration was added for co-incubation of 24 to 72 hours. As the negative control, normal mouse IgG or normal human IgG of the same concentration was used for the same incubation period.
At the end of incubation, the attached cells were removed from tissue culture wells by appropriate cell detachment solution. Apoptosis of treated cancer cells was quantitatively determined by TUNEL assay with the instructions provided by Cell Death Detection Kit, POD (Roche, Canada). Percent increases of cells with apoptosis after treatments with any one of hGHR106, mGHR106 and antide were obtained by subtracting spontaneous apoptosis from the negative control. […]

OC-3-VGH cancer cells = assay: Comparative gene regulation study in cancer cells; format: cell-based, human; conditions: FIG. 4; upon ligand treatment of cancer cells
Excerpt: Comparative gene regulation upon administration of hGHR106 or the decapeptide GnRH analog antide was examined using conventional protocols, e.g. as described in U.S. Pat. No. 8,361,793. […] Expressions of a number of selected genes involved in the proliferation or survival of cancer cells were compared. The selected genes include: GnRH, GnRHR, P0, P1, P2, L37, and EGF, c-fos, P21 and cyclin D1. P0, P1, P2, and L37 are ribosomal proteins.

B1: hGHR-106: humanized GHR-106 monoclonal antibody against the GnRH receptor (antibody)
heavy: QVQLQESGPGLVKPSETLSLTCTVSGFSLSRYSVHWIRQPPGKGLEWIGMIWGGGSTDYNPSLKSRVTISKDNSKSQVFLKMSSVTAADTAMYYCARGNDGYYSFAYWGQGTLVTVSSASTKGPSVFPLAPCSRSTSESTAALGCLVKDYFPEPVTVSWNSGALTSGVHTFPAVLQSSGLYSLSSVVTVPSSSLGTKTYTCNVDHKPSNTKVDKRV[human IgG4 Fc with S228P (EU numbers) skipped]
light: DIVMTQSPDSLAVSLGERATINCKSSQSLLNSRTRKNYLAWYQQKPGQSPKLLIYWASTRESGVPDRFSGSGSGTDFTLTISSLQAEDVAVYYCKQSYNLYTFGQGTKLEIKRTVAAPSVFIFPPSDEQLKSGTASVVCLLNNFYPREAKVQWKVDNALQSGNSQESVTEQDSKDSTYSLSSTLTLSKADYEKHKVYACEVTHQGLSSPVTKSFNRGEC
induced apoptosis (percent increase of cells with apoptosis) [1]: very similar degrees of induced apoptosis
Cyclin D1 expression (OC-3-VGH cancer cells): downregulated
EGF expression (OC-3-VGH cancer cells): downregulated
GnRH expression (up-regulation) (OC-3-VGH cancer cells): 50%
expression of the GnRH receptor (GnRHR) (OC-3-VGH cancer cells): unchanged
